# Out of some 4,800 compounds screened, about 420 (8.8%) showed an effect of 50% or more. The list shows a part of the results.
# Tested on: Plasmodium falciparum
# Assay: Confirmatory screen in NF54 nanoGlo assay, in single point, at 2uM, 72h
# Assay type: functional, Erythrocyte
# Conditions: timepoint 72 hour
row,Structure (SMILES),% Inhibition
1,O=C1C2CCN(CC2)[C@H]1Cc1ccc(Cl)cc1,4%
2,COC(=O)COc1ccc(C#N)c(Cl)c1,-5%
3,CC(=O)N(C1CCN(Cc2ccccc2)CC1)C1(C(=O)Nc2ccc3[nH]ccc3c2)CCN(C)CC1,35%
4,COc1ccc(CCN2C(=O)NC(=O)[C@@]3(Cc4c(ccc5ccccc45)N(C)C3)C2=O)cc1OC,-2%
5,O=C1NC(=O)C2(Cc3cccc(F)c3N3CCC(c4ccccc4)CC32)C(=O)N1c1ccccc1 (configuration not stated),-4%
6,Cc1ccc(Cl)c(NC(=O)N2CCC[C@H](c3n[nH]c(=O)o3)C2)c1,1%
7,CC(C)N1CCN(c2nc3nc[nH]c(=O)c3s2)CC1,4%
8,CN(C)c1ccccc1NS(=O)(=O)c1c(Br)cc2[nH]c(=O)oc2c1Cl,-7%
9,c1cc(-n2cnnn2)ccc1N[C@H]1CN2CCC1CC2,-14%
10,O=C(N1CCN(C(c2ccccc2)c2ccccc2)CC1)C(O)(c1ccccc1)c1ccccc1,-4%
11,c1cc(N2CC[C@@]3(CCCNC3)C2)c2sccc2n1,99%
12,COc1ccc(N2C[C@H]2c2ccncc2)cc1,-3%
13,O=C1CCN(C(=O)c2ccc(Cl)c(Cl)c2)CC1,-2%
14,CN(C)C(=O)CCCn1ccc(NC(=O)C2C(C)(C)C2(C)C)n1,-18%
15,O=C(Cc1noc2ccccc12)N1CC2CCCC(C1)N2,10%
16,CCCC(=O)N(C(=O)CCC)c1ccc2[nH]c(=O)oc2c1,-8%

row,Structure (SMILES),% Inhibition
1,Cc1nc(Cn2nc(C(C)(C)C)oc2=O)oc1C,0%
2,CC1CN2CCCC2CN1C(=O)c1cc(C2CC2)on1 (configuration not stated),-17%
3,CN1CC2CN(Cc3ccccc3)CC(C1)C2=O,-15%
4,O=C(NC1CCCCC1)N1C[C@@H]2C[C@H](C1)c1c(-c3ccccc3F)ccc(=O)n1C2,-4%
5,CN1CCC2CCN(C(=O)c3cc(C4CC4)on3)C2C1 (configuration not stated),2%
6,CC(C)(C)CC(C)(C)NCc1cccnc1,-7%
7,Cc1cc(C(=O)NC2CC(C)n3ccnc32)nn1C(C)C (configuration not stated),58%
8,CNCCc1cc(OC)c(OC)c2c1ccc1cc(OC)c(OC)cc12,8%
9,CC1CCCCC1N1CCN(C(=O)COc2ccc(Br)cc2)CC1 (configuration not stated),3%
10,Cc1cc(C(F)(F)F)c2c(C(N)=O)cn(C(C)(C)C)c2n1,2%
11,COc1ccc(-c2cc([C@H]3CN4CC[C@H]3C[C@@H]4CNC(=O)C3CCCCC3)n(C)n2)cc1OC,-9%
12,Cc1cc(=O)c(OCC(=O)N2CCN([C@@H](c3ccccc3)c3ccc(Cl)cc3)CC2)c[nH]1,63%
13,CC(CCc1ccccc1)N1C(=O)NC(=O)C2(Cc3c(ccc4ccccc34)N(C)C2)C1=O (configuration not stated),-8%
14,CCN1C[C@]2(COC)CC[C@H](OC)[C@@]34C5C[C@@H]6[C@@H](OC)C[C@@](O)(C5[C@H]6OC(=O)c5ccccc5)[C@@H](CC23)C14 (some centres not stated),1%
15,COc1cnc(C(F)(F)F)nc1N1CCNCC1,-2%
16,Cc1ccccc1[C@H](C)NC1=NCCO1,5%

# — ChEMBL document CHEMBL4888484, “Replenishing the malaria drug discovery pipeline: Screening and hit evaluation of the MMV Hit Generation Library 1 (HGL1) against asexual blood stage Plasmodium falciparum ,using a nano luciferase reporter read-out” (2022)
